About 540 (0.36%) of roughly 150,000 compounds showed an effect of 50% or more. The list shows a part of the results.
Test system: Plasmodium falciparum
Assay: Primary screen in NF54 nanoGlo assay, in single point, at 2uM, 72h; a lower Z score goes with more inhibition
Assay type: functional, Erythrocyte
Conditions: timepoint 72 hour

Structure (SMILES)	% Inhibition	Z score
Cc1cc(CCNC(=O)N2CC[C@H](O)CC(C)(C)C2)ccc1Cl	-9%	1.55
Nc1nccc(NC2COCC2N2CCOCC2)n1 (centres undefined)	-2%	0.5
O=C(NCCN1CCCC1)c1ccc(-c2ccc(C(F)(F)F)nc2)cc1	5%	-0.82
O=C(NC1CCN(CC(F)F)CC1)[C@@H]1CCCN1C1CCOCC1	-2%	0.3
c1cc(OC23CCCN(CC2)C3)ccc1CN1CCC(N2CCOCC2)CC1 (centres undefined)	-2%	0.23
CC(C)(C)c1cn2nc(NCCNc3ccc4ccccc4n3)sc2n1	6%	-0.98
CN1CCN(c2cc(N3CCC4(O)CCNCC4C3)nc(N)n2)CC1 (centres undefined)	3%	-0.73
Fc1ccc2c(CCNCc3cnn(-c4ccccc4)c3)c[nH]c2c1	-3%	0.71
Cc1nc(NCC2(CN3CCN(C)CC3)CC2)nc2c1CCCC2	-14%	2.49
COc1ccc(-c2cccc(C(=O)NCC3CCNCC3)c2)c2cccnc12	21%	-3.55
CN1C(=O)[C@H]2CN(C[C@@H]3CCCN4CCCC[C@H]34)C[C@H]2C1=O	-4%	0.88
CCN(CC)S(=O)(=O)CCNC1C2CCCOC2C1(C)C (centres undefined)	1%	-0.2
Cn1ccnc(Nc2ccc(Oc3ccc(CO)cc3)cc2)c1=O	13%	-2.24
O=C1C[C@H](Nc2nccc(-c3ccccn3)n2)CN1Cc1ccccc1	-9%	1.55
CCCC1CC(C(=O)NCc2nc3cccnc3[nH]2)CCO1 (centres undefined)	4%	-0.76
CC(C)(C)OC(=O)N1CC[C@@H]1CNc1cccc(-n2cnc3ccccc32)n1	-13%	2.89
CCN1CCC[C@@H]1CNC1CCN(c2ccc(NC(=O)c3cccc(Cl)c3)cc2)CC1	0%	-0.02
N#Cc1cccc(Cl)c1N1CCC(N2CCCC2)CC1	26%	-5.52
CCN(CC(=O)Nc1cccc(NC(C)=O)c1)Cc1ccc2[nH]ccc2c1	-5%	1.07
COc1ccc2nc3c(c(NC4CCOC5(CCOC5)C4)c2c1)CCCC3 (centres undefined)	-10%	1.84
O=C(c1ccnc(N2CCC(N3CCC(O)CC3)CC2)c1)N1CCCCC1	6%	-1.14

Structure (SMILES)	% Inhibition	Z score
O=C(NCc1cccc(-c2nc(-c3ccncc3)no2)c1)c1ccnc(OC2CCC2)c1	-12%	2.18
c1ccc(-c2ncc(CN3CC4CCC(C3)N(CC3CCC3)C4)cn2)nc1 (centres undefined)	-8%	1.45
O=C(O)c1cccc(Nc2ncc(F)c(Nc3ccc(O)cc3)n2)c1	-5%	0.77
Cc1ccc2[nH]cc(-c3cc(N4CCCCC4)ncn3)c2c1	11%	-2.17
O=C(c1ccnc2ccccc12)N1CCCN(C[C@H]2COc3ccccc3O2)CC1	-4%	0.66
CC1CCCCN1CCCNC(=O)CC(c1ccc2c(c1)OCO2)c1c[nH]c2ccccc12 (centres undefined)	1%	-0.19
CC1CCNCCC1NC1CC(=O)N(CCN2CCOCC2)C1 (centres undefined)	7%	-1.5
OC[C@H](Cc1ccc(O)cc1)NCc1csc(-c2ccc(F)cc2)n1	7%	-1.55
CCOc1ccc2nc(N3CCC(N4CCC([C@H](O)c5cccnc5)CC4)CC3)nc(C)c2c1	27%	-4.8
COC1(CNS(=O)(=O)c2c(C)cnn2C)CCCCCC1	-7%	1.11
CN(CC[C@H]1CCOC1)Cc1ccc2ncccc2c1	1%	-0.12
NCCc1ccc(C(=O)N2CCCC3(CCCC3O)C2)cc1 (centres undefined)	12%	-1.99
CC(C)C(=O)N1CCC[C@H]1C(=O)N1CCCN(CC2CCCCC2)CC1	-6%	1.26
Cc1ccc(Oc2ccc(C(=O)Nc3ccc(Nc4cc(N5CCOCC5)nc(C)n4)cc3)cc2)nn1	-9%	1.85
CCc1ccc2occ(C(=O)N(CCOCCO)C(C)C)c2c1	-3%	0.61
CC(CN1CCN(C)CC1)NC1CCCC(C(F)(F)F)C1 (centres undefined)	-6%	0.98
Cn1cc(CC(=O)N2CC3CN(Cc4ccns4)CC3(CO)C2)c2ccccc21 (centres undefined)	-3%	0.46
c1ccc2[nH]c(N3CCCN(c4ncnc5[nH]ccc45)CC3)nc2c1	-6%	1.21
O=C(N[C@H]1CCOC2(CCCC2)C1)c1ccc(Cl)c2cccnc12	3%	-0.42
COc1ccc(-c2nn3c(-c4ccccc4O)ccnc3c2C)cc1	-6%	1.05
CN1C(=O)c2ccc(S(=O)(=O)N3CCN(C(=O)OC(C)(C)C)CC3(C)C)cc2C1=O	-4%	0.8

Structure (SMILES)	% Inhibition	Z score
Oc1ccc(-c2ncnc3sccc23)cc1OC(F)(F)F	-4%	0.85
CN1CCN(CCOc2ccccc2CN(C)Cc2cc3cc(F)ccc3[nH]2)CC1	73%	-14.51
C[C@@H](C(=O)N1CCN(c2ccccc2)CC1)N1CCCN(CC(=O)NC(C)(C)C)CC1	-5%	0.88
CCc1occc1C(=O)N1CCCCC[C@H](Nc2cc(-n3ccnc3)ncn2)C1	-7%	1.26
Cc1nn(-c2ccc(F)cc2)c(C)c1CNc1nccc(N2CCC(O)CC2)n1	-16%	3.14
O=C(c1coc(CN2CCN(C/C=C/c3ccccc3)CC2)n1)N1C[C@H]2CC[C@@H](C1)N2	2%	-0.47
CC1CC2CCCCC2N1C(=O)C(=O)Nc1ccc(F)cc1C#N (centres undefined)	2%	-0.34
C[C@@H](CN1CCN(c2ccccc2)CC1)NC(=O)NC1CCN(C2CC2)CC1	4%	-0.63
COc1ccc2nc3nc(N)ncc3cc2c1	8%	-1.55
OC1(Cc2cc(-c3ccccc3)no2)CCN(Cc2cnc(N3CCOCC3)s2)CC1	-6%	0.98
CCOc1cc(CNc2nnc(-c3cnn(C)c3)o2)ccc1OCC(=O)N1CCCCC1	-12%	2.1
Cc1nc(NCC(C)(C)c2ccncc2)cc(C(F)(F)F)n1	-1%	0.12
COCCn1cnnc1CN(C)C(=O)c1ccc2c3c([nH]c2c1)CCCC3	-1%	0.3
CS(=O)(=O)CCN1CCC(Nc2ccc3cc[nH]c3n2)CC1	-4%	0.77
CC1CN(c2cc(C(N)=O)nc(N3CCCOC(C)C3)n2)CCCO1 (centres undefined)	-3%	0.49
O=C(NCC[C@H]1CCCN(C2CCCCCC2)C1)C1CCNCC1	1%	-0.26
Cc1cccc2c(-c3n[nH]c4ncnc(N)c34)c[nH]c12	-3%	0.47
COC1CCN([C@H]2CCC[C@H]2NCCC(=O)N2CCN(C)CC2)C1 (some centres undefined)	1%	-0.21
O[C@H]1CCCC[C@@H]1Nc1ccc(-c2cnn3ncccc23)cn1	-2%	0.33
CN(C)C1CCN(C(C)(C)CNCc2cnc(N3CCCC3)nc2)CC1	-2%	0.27
C[C@H](NC(=O)c1ccc(N2CCC(NCCc3c[nH]c4ccccc34)CC2)cc1)c1ccccc1	-8%	1.48

Structure (SMILES)	% Inhibition	Z score
c1cnc2c(-c3cc(NC4CCCC4)nc4[nH]ccc34)cnn2c1	-12%	2.03
CON(C)S(=O)(=O)c1cccc(C(=O)Nc2ccc3[nH]c(-c4cc(F)ccc4F)nc3c2)c1	-4%	0.62
CCc1cc(C(=O)N2CCC[C@H](N(C)C(=O)c3cc(F)cc(F)c3)CC2)no1	10%	-1.71
Cc1cc(Nc2nccc(-n3cccn3)n2)ccc1N(C)C	-9%	1.64
CN1CCN(c2ncc(-c3nc4cccc(Cl)c4[nH]3)cn2)CC1	10%	-1.73
Cc1ccc(C2(O)CCN(C(=O)C[C@H]3CCCOC3)CC2)nc1	6%	-1.25
CC(C)n1cc(CN2CCOc3ccc(CCC(=O)N4CCOCC4)cc3C2)c2ccccc21	-11%	1.94
O=C(c1ccc2cccnc2c1O)N1CCC[C@H](Nc2cccc(F)c2)C1	23%	-3.54
O=C(NCCNc1ccnc2ccncc12)c1ccc(C(F)(F)F)cc1	26%	-4.62
Cc1ccc(C(=O)Nc2cccc(C(F)(F)F)c2)cc1NCc1csc(-c2cnn(C)c2)n1	-5%	1.17
Cc1n[nH]cc1C1CCN(C(=O)c2ccnn2C(F)F)CC1	-11%	1.62
O[C@H]1C[C@](CNc2ncnc3[nH]ccc23)(c2ccccc2)C1	11%	-1.89
CN(CCn1ccnc1)C[C@@H]1CCCN2CCCC[C@H]12	4%	-0.61
O=C(Nc1ccc(Oc2cccnc2)cc1)N1CCN([C@H]2CCNC2)CC1	-5%	0.86
COC[C@H](C)Nc1ccccc1NC(=O)c1cccc(Nc2cnccn2)c1	-13%	2.73
COc1ccc2c(c1)sc1nc(-c3cccc(O)c3)c(Nc3cccc(C)c3)n12	-5%	0.78
CN1CCN(CC2(C)CCN(C(=O)c3cnc4cnccc4c3)CC2)CC1	-7%	1.08
N#C[C@H]1CCCN(C(=O)NCC2CCN(CCc3ccccc3)CC2)C1	7%	-1.55
Cc1cccc(-c2nccc(Nc3cccc(C(=O)N4CCC(N5CCCCC5)CC4)c3)n2)c1	-5%	0.85
